A number of entries come with more than one value. The other results are left out here. An entry can have further records. The records of an entry are repeated measurements across runs, samples, wells, individuals or studies. Marks such as (2×) give the number of equal values in this list. Dates in brackets are months of testing.
Test system: 186277-243-T-J2-PDC complex spheroid viability
Test: Anticancer human tumor 186277-243-T-J2-PDC patient-derived colon adenocarcinoma cell line growth inhibition
Conditions: for viability, T/C: stronger effect = lower value
Source text: Multicellular complex tumor spheroid response to LSD1 Inhibitor Iadademstat in combination with a variety of drugs and investigational agents in selected tumor cell lines
The current study was undertaken to assess response to LSD1 inhibitors in combination with standard-of-care drugs and investigational agents in solid tumor complex spheroid models as well as in the K-562 leukemia. Complex spheroids include a stromal component modeled by human endothelial cells (HUVEC) and fibroblasts modeled by human mesenchymal stem cells (MSCs). The concentration ranges selected for each drug and investigational agent were based upon clinically achievable concentrations if the clinical Cmax of the agent was known.
Compounds. The drugs and investigational agents used in this study are listed on Table 1. All of the agents used, including staurosporine (NSC755774) and gemcitabine (NSC613327), were obtained from the Developmental Therapeutics Program, NCI. FDA-approved anticancer drugs are available from the NCI at http://dtp.nci.nih.gov/branches/dscb/oncology_drugset_explanation.html. Drugs and investigational agents were >95% pure by proton nuclear magnetic resonance (NMR) and liquid chromatography/mass spectrometry (LC/MS). Stock solutions were prepared at 400x in DMSO, stored at -70 degrees C, and diluted in fresh medium prior to their use. The final concentration of DMSO in cell culture wells never exceeded 0.25% (v/v). The FDA-approved anticancer drug set is available from the Developmental Therapeutics Program at https://dtp.cancer.gov/organization/dscb/obtaining/available_plates.htm. All drugs and investigational agents were tested over a range starting from a high concentration at or near the clinical Cmax and decreasing in half-log increments. If the clinical Cmax for an agent had not been determined, the highest concentration tested was 10 microM.
Cell Lines. The patient-derived cancer cell (PDC) lines: 292921-168-R-J2-PDC, K24384-001-R-PDC, and 521955-158-R2-J5-PDC pancreatic carcinomas, 556581-035-R-J1 ovarian carcinoma, 324938-238-R-J1-PDC, 855422-203-R-J1-PDC and 883617-216-R-J1-PDC urothelial bladder carcinomas, 743489-274-T-PDC renal cell carcinoma, 138582-R-J1 Merkel cell tumor, K60290-347-R-J1 and K57222-313-R-J1-PDC glioblastomas, 653999-131-R-J2-PDC, LG0703-F948-PDC, and 349418-098-R-PDC non-small cell lung carcinomas, 885512-296-R-J2-PDC, 171881-019-R-J1-PDC breast carcinomas and 186277-243-T-J2-PDC and 233499-124-R-J2-PDC colon carcinomas were obtained from the NCI Patient-Derived Models Repository (PDMR, https://pdmr.cancer.gov). The established cell lines NCI/ADR-RES (RRID:CVCL_14520 and OVCAR-5 (RRID:CVCL_1628) ovarian carcinomas, 786-O (RRID:CVCL_1051) and A498 (RRID:CVCL_A498) renal cell carcinoma, NCI-H211 (ATCC, cat. CRL-5824; RRID:CVCL_1529), NCI-H196 (ATCC, cat. CRL-5823, RRID:CVCL_1509), SW 1271 (ATCC, cat. CRL-2177, RRID:CVCL_1716) and NCI-H1876 (ATCC, cat. CRL-5902, RRID:CVCL_1503) small cell lung carcinomas, MDA-MB-231 (RRID:CVCL_0062) and MDA-MB-468 (RRID:CVCL_0419)breast carcinomas (10-12). Pooled donor human umbilical vein endothelial cells (HUVEC, Lonza, cat. CC-2519) and human mesenchymal stem cells (hMSC, Lonza, cat. PT-2501) were purchased from Lonza (Walkersville, MD).
Cell Culture. All cells were maintained in an incubator at 37 degrees C and 5% CO2 with 95% humidity. The PDC lines were cultured according to standard operating procedures established by the NCI PDMR (https://pdmr.cancer.gov). Briefly all PDCs were thawed and cultured in Matrigel-coated flasks prepared with a working solution of 1X Ham's F-12 nutrient mix, without supplementation (Invitrogen, Waltham, MA, cat. 11765054), 100 U/mL penicillin-streptomycin (Invitrogen, cat. 15140122), and 2.5% Matrigel (Corning Inc., Corning, NY, cat. 354248) for the first three passages. […]
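Further: 7 day exposure to compounds.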
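Wherever viability, T/C is given: 100% = DMSO vehicle control viability.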

COc1cc(Nc2ncc3c(n2)-c2ccc(Cl)cc2C(c2c(F)cccc2OC)=NC3)ccc1C(=O)O
IC50 (compound alone): 13.8 nM [2022-01] and > 1 µM [2022-02]
viability, T/C (compound alone 0.316 µM): 0.36% [2022-01] and 106% [2022-02]
viability, T/C (compound alone 1 µM): 0.07% [2022-01] and 95.3% [2022-02]

CC(C)CC(NC(=O)C(Cc1ccccc1)NC(=O)c1cnccn1)B(O)O (configuration not stated)
viability, T/C (compound alone 0.001 µM): 100% [2022-01] and 1.72% [2022-02]
viability, T/C (compound alone 0.00316 µM): 43.1% [2022-01] and 0.23% [2022-02]

NC1CC1c1ccc(-c2cccc(O)c2)cc1 (configuration not stated)
viability, T/C (compound alone 1 µM): 106 (5×), 104 (4×), 112 (2×), 109, 119, 100, 116, 102, 105 (2×), 113 (2×), 89.4, 99.2, 114, 94.1, 96.1%
viability, T/C (compound alone 10 µM): 101 (4×), 113 (2×), 104 (2×), 110, 106 (2×), 98.2, 94.9, 97.7, 94.7, 124, 115, 92.8, 112, 99.2, 97.3, 108, 105, 94.4%

O=C(C=Cc1cccc(S(=O)(=O)Nc2ccccc2)c1)NO
viability, T/C (compound alone 3 µM): 3.15% [2022-01] and 99.2% [2022-02]

NC1CCC(NC2CC2c2ccccc2)CC1 (configuration not stated)
viability, T/C (compound alone 0.1 µM): 107, 99.7, 94.7, 112, 102, 111, 115 (3×), 118 (3×), 106 (2×), 116, 86, 113, 97.4, 97.7, 119, 97.2, 105, 95.9, 122, 93.9%
viability, T/C (compound alone 1 µM): 112 (2×), 94.9, 98.4, 97, 114 (3×), 107, 115 (3×), 103 (2×), 111 (2×), 118 (2×), 108, 110 (2×), 98.2, 124, 101, 96.9%
viability, T/C (compound alone 3.16 µM): 111 (3×), 97.7, 107 (4×), 108 (2×), 117 (2×), 118, 120, 112 (2×), 105, 91.2, 110 (3×), 116, 102, 132, 119%
viability, T/C (compound alone 10 µM): 103 (2×), 99.1, 105 (5×), 110, 114 (2×), 112, 116, 97.9, 87.1, 113, 107 (4×), 99.9, 120, 122%

— PubChem BioAssay AID1918933 (Molecular Pharmacology Branch, DTP, NCI, 2023)
